The supplement of paper PMC4166925
± gives the standard deviation of the averaged measurements. Over roughly 33,000 sequences, “E-score (dimensionless, -0.5 to 0.5)” has its median near -0.049; the highest 2% begin near 0.37. Some of the results follow.

These sequences were tested on T1, PmTbr T-box DNA-binding domain (GST fusion) (assay: PBM E-score of 8-mer (E-score (dimensionless, -0.5 to 0.5)); Tbr is Tbrain of the sea star Patiria miniata (Pm) or the sea urchin Strongylocentrotus purpuratus (Sp); higher = stronger binding preference; most listed sequences are background and not binding sites). Details: the construct has about 5 more residues each side.
T1 sequence: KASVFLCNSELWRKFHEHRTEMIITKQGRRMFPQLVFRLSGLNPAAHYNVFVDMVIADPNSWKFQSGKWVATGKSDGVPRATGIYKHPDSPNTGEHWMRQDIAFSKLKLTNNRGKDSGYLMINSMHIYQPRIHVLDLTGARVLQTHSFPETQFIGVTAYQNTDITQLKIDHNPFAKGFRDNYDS
Procedure, shortened: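 GST-fused Tbr T-box DNA-binding domains (the whole T-box plus about five flanking residues) were expressed in BL21 E. coli at 20 °C and purified by glutathione affinity chromatography. Universal Agilent oligonucleotide arrays were made double-stranded by primer extension, incubated with 200 nM protein in PBS (pH 7.5), then scanned and quantified. Every ungapped 8-mer was scored from probe intensities. The Universal PBM Analysis Suite gave each word an enrichment E-score, averaged over duplicate arrays.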

| Sequence | PBM E-score of 8-mer |
| --- | --- |
| ATCACATA | 0.297 ± 0.028 |
| CACCATGA | 0.2123 ± 0.0012 |
| CAGATCTA | -0.124 ± 0.05 |
| CACGGGTC | 0.0871 ± 0.051 |
| CGCCCCTC | -0.0104 ± 0.002 |
| GGATTCCA | -0.0701 ± 0.079 |
| GATGAGCC | -0.212 ± 0.031 |
| GGCTTCCA | -0.273 ± 0.059 |
| ATGATAAC | 0.0197 ± 0.036 |
| AGGTATGA | 0.029 ± 0.038 |
| ATGCAACG | -0.0217 ± 0.018 |
| ACAACGTC | 0.0762 ± 0.019 |
| CGCGAACA | 0.328 ± 0.007 |
| ATGACCGC | -0.328 ± 0.058 |
| CTTTCCGA | -0.0405 ± 0.025 |
| ACTGATCA | -0.104 ± 0.025 |
| AATTGCTC | 0.0908 ± 0.0015 |
| GCCCGAAA | 0.045 ± 0.0033 |
| ATAGATTA | -0.119 ± 0.067 |
| CCGCTTTA | -0.0206 ± 0.08 |
| AGACGCTG | -0.078 ± 0.052 |
| GGGTGTTA | 0.4737 ± 0.00077 |
| CATCGCAG | 0.0526 ± 0.063 |
| GCCGTCCA | -0.0964 ± 0.033 |
| CCCTAGCG | -0.134 ± 0.076 |

| Sequence | PBM E-score of 8-mer |
| --- | --- |
| GACGGAGC | -0.0984 ± 0.018 |
| ACAATCAA | 0.00085 ± 0.022 |
| AACGACAA | -0.0107 ± 0.026 |
| AAATGATG | -0.138 ± 0.13 |
| AGATTATC | 0.114 ± 0.038 |
| CACATTCG | 0.333 ± 0.026 |
| AGTCCACG | 0.00505 ± 0.057 |
| ATTACCGA | -0.0683 ± 0.02 |
| ATCGGTGA | 0.0545 ± 0.041 |
| AGCGAAGG | 0.0352 ± 0.017 |
| CCGTTATC | 0.0968 ± 0.011 |
| CTCCCTAA | -0.146 ± 0.072 |
| AATGCTCA | -0.175 ± 0.04 |
| ACGCACGG | -0.00685 ± 0.008 |
| GACTCATC | -0.298 ± 0.013 |
| CAGGTGCC | 0.4 ± 0.0072 |
| ATTCGGTA | -0.266 ± 0.025 |
| AGATGGAC | -0.281 ± 0.02 |
| GTCGATAA | 0.232 ± 0.025 |
| CAACTTGA | 0.112 ± 0.01 |
| ATGGGGGA | -0.23 ± 0.018 |
| AAAGAAGT | 0.0456 ± 0.028 |
| ACTGAGCA | -0.203 ± 0.039 |
| AACGAATT | 0.0199 ± 0.012 |
| GAAGATTA | -0.00178 ± 0.036 |

| Sequence | PBM E-score of 8-mer |
| --- | --- |
| TCATCACA | 0.356 ± 0.025 |
| ACACAGCT | 0.0986 ± 0.0019 |
| TAGGTGCA | 0.22 ± 0.024 |
| CCAACAAA | 0.0315 ± 0.043 |
| GAAGAACA | -0.24439 ± 4.9e-05 |
| ACAGGAAG | -0.0347 ± 0.064 |
| AAACCTAA | -0.0751 ± 0.036 |
| GCTAACCC | 0.00156 ± 0.0032 |
| CCCAGCAA | -0.00337 ± 0.019 |
| GTCAAGGA | -0.13 ± 0.032 |
| CGAGAGGA | 0.0951 ± 0.0089 |
| ATAGCTAG | -0.0742 ± 0.12 |
| CGACGGTA | -0.0648 ± 0.0062 |
| CATTGCAG | -0.0623 ± 0.12 |
| AGTTGACC | -0.231 ± 0.009 |
| CCAGAGAC | 0.00236 ± 0.015 |
| GATTTCTA | 0.00863 ± 0.024 |
| ACGAATGG | 0.0417 ± 0.027 |
| AATGCGCT | -0.198 ± 0.051 |
| CGCAACCA | -0.0188 ± 0.013 |
| CAACGCTA | 0.102 ± 0.0072 |
| CTTTGGGC | -0.26 ± 0.11 |
| GATGTAGA | -0.24 ± 0.033 |
| ATTCGGAC | -0.273 ± 0.039 |
| GGCACCAA | 0.231 ± 0.024 |

| Sequence | PBM E-score of 8-mer |
| --- | --- |
| ATCGGTCG | -0.0188 ± 0.049 |
| ACTAATAT | -0.123 ± 0.059 |
| AACGCAAC | -0.0356 ± 0.018 |
| AAAGCTCG | -0.229 ± 0.069 |
| GTAAATGA | -0.198 ± 0.098 |
| GGTCTACA | -0.0999 ± 0.022 |
| AATTACAT | -0.0447 ± 0.052 |
| CGGGACAA | -0.245 ± 0.026 |
| ACATGAAA | -0.0772 ± 0.04 |
| CATATGGC | -0.227 ± 0.041 |
| CAGATGGC | -0.118 ± 0.0089 |
| GGTCACTA | 0.0131 ± 0.07 |
| GTTGGTGA | 0.0811 ± 0.016 |
| ATTTGAGG | -0.118 ± 0.082 |
| CAGGGAAC | -0.0935 ± 0.11 |
| AATACGCT | -0.0344 ± 0.027 |
| AATTCAGT | -0.0033 ± 0.047 |
| AAGAACCA | -0.148 ± 0.0063 |
| AAATGTGC | 0.206 ± 0.049 |
| GGCTCCGA | -0.171 ± 0.017 |
| TGCGACCA | 0.189 ± 0.0079 |
| CGTGCAGA | -0.168 ± 0.075 |
| CCGTGTGA | 0.335 ± 0.015 |
| AATTAAGG | -0.152 ± 0.064 |
| CATTCGAG | -0.183 ± 0.021 |

| Sequence | PBM E-score of 8-mer |
| --- | --- |
| TCTCGGAA | -0.243 ± 0.017 |
| AGCCAAAG | -0.273 ± 0.029 |
| AGCGTGCG | 0.249 ± 0.034 |
| CCATATAA | -0.138 ± 0.043 |
| CCGCCCTA | -0.196 ± 0.037 |
| AATACGAA | -0.143 ± 0.041 |
| CATTTAGC | 0.16 ± 0.044 |
| GTAGAAGA | -0.277 ± 0.034 |
| CACAACCC | 0.111 ± 0.059 |
| GAAGAGAC | -0.282 ± 0.024 |
| AACAGCTA | 0.241 ± 0.04 |
| CACATAAG | 0.174 ± 0.033 |
| GCAAAGGC | -0.146 ± 0.0076 |
| ATTAGAAA | -0.168 ± 0.049 |
| CACCGGGA | 0.117 ± 0.012 |
| AGTATACT | -0.169 ± 0.094 |
| AGCCAACT | -0.15 ± 0.0077 |
| GAGCGTAA | -0.301 ± 0.041 |
| ACGCCGAT | -0.00989 ± 0.039 |
| GGAAGACC | -0.0885 ± 0.028 |
| AACTGATT | -0.2812 ± 0.0021 |
| GACGAGTC | -0.109 ± 0.073 |
| CCGTTACG | -0.125 ± 0.066 |
| AGCGTAAC | -0.0296 ± 0.0038 |
| AAAGTTGG | 0.00902 ± 0.056 |

| Sequence | PBM E-score of 8-mer |
| --- | --- |
| AAAATGAT | -0.0806 ± 0.056 |
| TAATGATA | -0.13 ± 0.067 |
| GGTGCCAC | 0.398 ± 0.015 |
| CGCTGCGA | 0.121 ± 0.0033 |
| CTTTCCCA | 0.0554 ± 0.092 |
| ACGCTCTA | -0.124 ± 0.013 |
| CTCCGTCA | 0.0554 ± 0.069 |
| AGTGGGTC | -0.206 ± 0.021 |
| AGCGCAAG | -0.0939 ± 0.037 |
| CCTGGCCC | -0.123 ± 0.027 |
| CTCAATCA | -0.02664 ± 0.00021 |
| AATCTGCT | 0.0322 ± 0.063 |
| AGGTTGCC | -0.0406 ± 0.058 |
| AGGCACCT | 0.23 ± 0.025 |
| CTAAGTAA | -0.198 ± 0.058 |
| ACGTAACG | -0.0182 ± 0.018 |
| GACCGTGA | 0.118 ± 0.025 |
| AAAGCAAA | 0.0181 ± 0.017 |
| CACCCATC | 0.201 ± 0.011 |
| AAACAGGT | 0.0709 ± 0.028 |
| CAATTAAG | -0.0593 ± 0.055 |
| CTGTGGCC | -0.178 ± 0.036 |
| AGCTGTTC | 0.0464 ± 0.026 |
| AATCTCCC | -0.0572 ± 0.13 |
| AAGTTCAA | 0.0328 ± 0.073 |

| Sequence | PBM E-score of 8-mer |
| --- | --- |
| TCAACTCA | -0.0373 ± 0.048 |
| GAGCCAAA | -0.0529 ± 0.1 |
| AATCAGGT | 0.114 ± 0.033 |
| AGCTACCA | -1e-05 ± 0.057 |
| CTATAAAG | -0.053205 ± 2.1e-05 |
| GATTTGCC | -0.00123 ± 0.046 |
| CCCTTTGA | -0.0377 ± 0.059 |
| AAACCTAG | 0.113 ± 0.032 |
| GCAGCCCA | -0.0256 ± 0.0052 |
| GCCGCACA | 0.00801 ± 0.037 |
| ATATAACC | -0.0772 ± 0.028 |
| AGTTTGGA | -0.336 ± 0.051 |
| AAAATATA | -0.335 ± 0.12 |
| ATGCAAGG | -0.0945 ± 0.046 |
| GCCAGGAC | 0.0312 ± 0.029 |
| TAGGGACA | -0.259 ± 0.063 |
| GGAAGAAA | -0.0966 ± 0.055 |
| AAGAAGGG | -0.301 ± 0.034 |
| CCTGTCCG | -0.0124 ± 0.082 |
| CGGGAGCC | -0.191 ± 0.091 |
| GGAAGGCC | -0.285 ± 0.076 |
| GTGCAAAC | 0.285 ± 0.037 |
